# In the supplement of paper PMC8728848:
# The list shows a part of the results.
# B1: PitA (Streptococcus oralis), G3F8D8 (protein)
# chain: MNIRFDFKKVQIIARRLVTLLAILFLCAPISLLNADSTTEPQTTLHKTITPISGQDDKYELSLDITSKLGTETQTDPLDVVLVADLSGSMQNQDVQSFDGRTISRIDALKNTLRGTNGRKGLIDTILSNSNNRLSMVGFGGKIDNKKVDQYWDGNKWRLFRPYWPYERMTKYYDGVSPWDDANTILGWSNNARAAKTAVYNMSIAGGNSIGTESGIGTGTNIGAGLTLANQLMGSARSNAKKVVILLSDGFANMVYDANGYTIYNYNNEDPNIETAPQWFWDRLNNNLNSLSYSLAPTLDGFYSIKFRYSNNVDSITSLQYYMRQHNASIPNEIFSANDEDQLRDSFKDITDKILPLGIHHVSIKDVLSKYVQLLPNGSSEFRVVKEKDGSSEILIENQVTFDTKTTSEGLVEVTAKFSPNYSLEDGARYVLKFTVTSSQEALDAIAGDKKLEAGDAEGSDVNKLYSNKGASVTYSYGIGNSQTKTKEYSDNPTFKPSDPLTVPVEVEWQGVTGARTVITADQPSNVELKLVQKNKNGGSDNQDYRKTNVNVSKNVSNETRNFEKVAKGYQYDLIAPDVPAFTKEIKNVGTESKPSFKVIYKQLPSLTIKKVLEAENNLNKEFRIKVKLTSPDSKPLNGTFGEITVVNGEAEIRVEKRKRWEGILSYLPRGTHYKVEEEAASTNGYHVTYENQEGDLNKDETSIVTNHKLPSLSVTKKVTGVFANLLKSFKITINIRDAQNSPLNGTYTATVNNKRTPLQFTNGRASIDLNKDQTIKIYGLPLDSHYTVEEESNSSRGYQVSYENQEGKLDGDKSATVTNNKNSVPETGVDFLSSTLMLGIILPLGGIFFTILLGYLVVHRRK
# Tests used:
# Assay in all cases: glycan array binding signal (z-score within array); higher = stronger binding
# Settings in all cases: glycan notation: IUPAC condensed, linker removed
# [1] = target: GlcNAc(b1-3)Gal(b1-3)GalNAc
# Outline: (§1)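 Negative Z-scores can be read as non-binding. The Z-score is calculated within each array and then averaged across arrays of one protein sequence at different concentrations or buffers and across linkers. Arrays, 3228 in all, were curated from the Consortium for Functional Glycomics database and kept only where the protein sequence was available.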
# GlcNAc(b1-3)Gal(b1-4)Glc = target: GlcNAc(b1-3)Gal(b1-4)Glc
# Outline: as §1
# [2] = target: GlcNAc(b1-3)Gal(b1-4)GlcNAc
# Outline: as §1
# [3] = target: GlcNAc(b1-3)Gal(b1-4)GlcNAc(b1-3)Gal(b1-4)GlcNAc
# Outline: as §1
# GlcNAc(b1-3)GalNAc = target: GlcNAc(b1-3)GalNAc
# Outline: as §1
# GlcNAc(b1-3)Man = target: GlcNAc(b1-3)Man
# Outline: as §1
# [4] = target: GlcNAc(b1-3)[GlcNAc(b1-4)][GlcNAc(b1-6)]GlcNAc
# Outline: as §1
# [5] = target: GlcNAc(b1-3)[GlcNAc(b1-6)]Gal(b1-4)GlcNAc
# Outline: as §1
# [6] = target: GlcNAc(b1-3)[GlcNAc(b1-6)]GalNAc
# Outline: as §1
# [7] = target: GlcNAc(b1-4)Gal(b1-4)GlcNAc
# Outline: as §1
# GlcNAc(b1-4)GlcNAc = target: GlcNAc(b1-4)GlcNAc
# Outline: as §1
# [8] = target: GlcNAc(b1-4)GlcNAc(b1-4)GlcNAc
# Outline: as §1
# [9] = target: GlcNAc(b1-4)GlcNAc(b1-4)GlcNAc(b1-4)GlcNAc(b1-4)GlcNAc
# Outline: as §1
# [10] = target: GlcNAc(b1-4)GlcNAc(b1-4)GlcNAc(b1-4)GlcNAc(b1-4)GlcNAc(b1-4)GlcNAc
# Outline: as §1
# [11] = target: GlcNAc(b1-4)[GlcNAc(b1-6)]GalNAc
# Outline: as §1
# [12] = target: GlcNAc(b1-6)Gal(b1-4)GlcNAc
# Outline: as §1
# GlcNAc(b1-6)GalNAc = target: GlcNAc(b1-6)GalNAc
# Outline: as §1
# GlcNAc3Prop(b1-4)GlcNAc = target: GlcNAc3Prop(b1-4)GlcNAc
# Outline: as §1
# [13] = target: GlcNAc6S(b1-3)Gal(b1-4)GlcNAc
# Outline: as §1
# Kdn(a2-3)Gal(b1-3)GalNAc = target: Kdn(a2-3)Gal(b1-3)GalNAc
# Outline: as §1
# Kdn(a2-3)Gal(b1-3)GlcNAc = target: Kdn(a2-3)Gal(b1-3)GlcNAc
# Outline: as §1
# Kdn(a2-3)Gal(b1-4)Glc = target: Kdn(a2-3)Gal(b1-4)Glc
# Outline: as §1
# Kdn(a2-3)Gal(b1-4)GlcNAc = target: Kdn(a2-3)Gal(b1-4)GlcNAc
# Outline: as §1
# [14] = target: Kdn(a2-3)Gal(b1-4)[Fuc(a1-3)]GlcNAc
# Outline: as §1
# Kdn(a2-6)Gal(b1-4)GlcNAc = target: Kdn(a2-6)Gal(b1-4)GlcNAc
# Outline: as §1
# [15] = target: Man(a1-2)Man(a1-2)Man(a1-3)Man
# Outline: as §1
# [16] = target: Man(a1-2)Man(a1-2)Man(a1-6)[Man(a1-3)]Man
# Outline: as §1
# Man(a1-2)Man(a1-3)Man = target: Man(a1-2)Man(a1-3)Man
# Outline: as §1
# [17] = target: Man(a1-2)Man(a1-3)[Man(a1-2)Man(a1-6)]Man
# Outline: as §1
# [18] = target: Man(a1-2)Man(a1-3)[Man(a1-2)Man(a1-6)]Man(a1-6)[Man(a1-2)Man(a1-2)Man(a1-3)]Man
# Outline: as §1
binder,measurement,setting,value
B1,glycan array binding signal (z-score),[1],0.506
same,glycan array binding signal (z-score),GlcNAc(b1-3)Gal(b1-4)Glc,0.062
same,glycan array binding signal (z-score),[2],-0.199
same,glycan array binding signal (z-score),[3],-0.259
same,glycan array binding signal (z-score),GlcNAc(b1-3)GalNAc,-0.343
same,glycan array binding signal (z-score),GlcNAc(b1-3)Man,-0.414
same,glycan array binding signal (z-score),[4],0.014
same,glycan array binding signal (z-score),[5],-0.472
same,glycan array binding signal (z-score),[6],-0.392
same,glycan array binding signal (z-score),[7],-0.216
same,glycan array binding signal (z-score),GlcNAc(b1-4)GlcNAc,-0.116
same,glycan array binding signal (z-score),[8],0.175
same,glycan array binding signal (z-score),[9],-0.206
same,glycan array binding signal (z-score),[10],0.39
same,glycan array binding signal (z-score),[11],-0.605
same,glycan array binding signal (z-score),[12],0.902
same,glycan array binding signal (z-score),GlcNAc(b1-6)GalNAc,0.138
same,glycan array binding signal (z-score),GlcNAc3Prop(b1-4)GlcNAc,-0.175
same,glycan array binding signal (z-score),[13],-0.18
same,glycan array binding signal (z-score),Kdn(a2-3)Gal(b1-3)GalNAc,-0.359
same,glycan array binding signal (z-score),Kdn(a2-3)Gal(b1-3)GlcNAc,0.352
same,glycan array binding signal (z-score),Kdn(a2-3)Gal(b1-4)Glc,-0.512
same,glycan array binding signal (z-score),Kdn(a2-3)Gal(b1-4)GlcNAc,-0.184
same,glycan array binding signal (z-score),[14],1.05
same,glycan array binding signal (z-score),Kdn(a2-6)Gal(b1-4)GlcNAc,-0.377
same,glycan array binding signal (z-score),[15],1.92
same,glycan array binding signal (z-score),[16],-0.633
same,glycan array binding signal (z-score),Man(a1-2)Man(a1-3)Man,0.592
same,glycan array binding signal (z-score),[17],-0.583
same,glycan array binding signal (z-score),[18],-0.327
